Assay results published in PubChem BioAssay AID1745853 (National Center for Advancing Translational Sciences (NCATS), 2022).
This is one part of the list. Shown are side measurements of this screen, not its main read-out; they come without a call.

What was measured:
Test in all cases: Primary Screen for Target Class Profiling of Small Molecule Inhibitors of Methyltransferases
[1] = target: Glycine N-methyltransferase (Homo sapiens) (UniProt Q14749); details: purified enzyme, MTase-Glo SAH luminescence; measured here: GNMT inhibition; at 40 µM; stronger effect = lower value
In short: (§1)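 Each enzyme was assayed with SAM and its substrate. SAH formation detected by MTase-Glo luminescence; single-point 40 uM screen[…].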

[2] = target: Guanidinoacetate N-methyltransferase (Homo sapiens) (UniProt Q14353); details: purified enzyme, MTase-Glo SAH luminescence; measured here: GAMT inhibition; at 40 µM; stronger effect = lower value
In short: as §1

[3] = target: Histamine N-methyltransferase (Homo sapiens) (UniProt P50135); details: purified enzyme, MTase-Glo SAH luminescence; measured here: HNMT inhibition; at 40 µM; stronger effect = lower value
In short: as §1

[4] = target: Nicotinamide N-methyltransferase (Homo sapiens) (UniProt P40261); details: purified enzyme, MTase-Glo SAH luminescence; measured here: NNMT inhibition; at 40 µM; stronger effect = lower value
In short: as §1

[5] = target: Phenylethanolamine N-methyltransferase (Homo sapiens) (UniProt P11086); details: purified enzyme, MTase-Glo SAH luminescence; measured here: PNMT inhibition; at 40 µM; stronger effect = lower value
In short: as §1
% is scaled to controls: 0 for no effect and ±100 for the full control effect.

Row | Compound | activity change, negative = inhibition [1] [%] | activity change, negative = inhibition [2] [%] | activity change, negative = inhibition [3] [%] | activity change, negative = inhibition [4] [%] | activity change, negative = inhibition [5] [%]
1 | CC(NS(=O)(=O)c1ccc(Cl)c(-c2nnc(-c3ccccc3)o2)c1)C(=O)O (stereo not given) | 8.12 | 4.38 | 8.15 | 8.38 | 9.43
2 | CC1(C(=O)NC2CCCCCC2)Cn2c(ccc2-c2ccco2)C(=O)N1C1CCCC1 (stereo not given) | -2.47 | 3.65 | -0.249 | -20.4 | -2.14
3 | CCOC(=O)c1cc2n(n1)CC(C)(C(=O)NCc1ccc(Cl)cc1)N(Cc1ccc(C)o1)C2=O (stereo not given) | 0.474 | 4.22 | -1.7 | -0.385 | 2.09
4 | CC1C(=O)CC2C3CCC(C(=O)O)C12CC3(C)CO (stereo not given) | -3.68 | -3.57 | 9.4 | -18.8 | -14.2
5 | CCCn1c(=O)c2ccccc2n2c(=O)n(Cc3c(F)cccc3Cl)nc12 | -0.874 | 0.888 | 7.22 | -21 | 3.28
6 | N#Cc1cccc(CN[C@H]2[C@H](O)[C@H](O)C[C@@H]2c2cccnc2)c1 | -2.66 | -3.29 | 0.771 | -6.13 | -4.65
7 | COc1ccc(Br)cc1CN1C(=O)c2cc3ccccc3n2CC1(C)C(=O)NCc1ccccc1 (stereo not given) | 4.13 | 3.06 | 6.79 | 3.02 | -1.08
8 | Nc1nc2ccc(Cl)cc2n2c(-c3ccccc3)nnc12 | -1.54 | 9.04 | 6.17 | -6.28 | 0.172
9 | COC[C@@H]1[C@H](NC(=O)c2csc(C)c2-c2ccccc2)[C@@H]2CCO[C@H]12 | -6.44 | -6.79 | -4.5 | -9.54 | 5.33
10 | COc1c2c(c(C)c3c1C(=O)OC3)O[C@@]1(C)CC(O)C(C(C)(C)O)[C@](C)(CCC(=O)O)[C@H]1C2 (stereo not given in full) | -2.26 | -4.52 | -5.53 | -17.5 | -2.04
11 | CCc1cc2c(cc3n2CC(C)(C(=O)NC2CCCCCC2)N(CC(C)c2ccccc2)C3=O)s1 (stereo not given) | -4.64 | 3.73 | -2.83 | -0.477 | -4.8
12 | CC1CCCC(NC(=O)C2(C)Cn3c(nc4ccccc43)C(=O)N2CCc2ccccc2)C1C (stereo not given) | 1.87 | 4.29 | -0.053 | 1.78 | -0.935
13 | COc1ccc(CNC(=O)[C@@H](C)C2CC[C@@]3(C)CC[C@H](NC(=O)COc4ccccc4)[C@@H](C)[C@@H]3[C@H]2O)cc1 (stereo not given in full) | -3.24 | 0.372 | -9.27 | -7.1 | -6.63
14 | CCCNC(=O)c1ccc2c(=O)nc3c(-c4ccc(OC)cc4)n[nH]n3c2c1 | -4.07 | 4.66 | -2.18 | -0.344 | -2.12
15 | Cn1c(=O)c2ccc(C(=O)NC3CCCCC3)cc2n2c(=O)n(CC(=O)Nc3ccc(Cl)cc3)nc12 | 2.38 | 5.6 | 8.88 | -1.44 | 2.83
16 | CCCn1c(=O)c2ccc(C(=O)NC(C)C)cc2n2c(SCc3cccc(OC)c3)nnc12 | 1.14 | 1.68 | 4.4 | -6.1 | -0.465
17 | C/C=C(\C)C(=O)O[C@H]1[C@@H](O[C@]2(COC(=O)CC(C)C)O[C@H](COC(=O)C(C)CC)[C@@H](OC(C)=O)[C@@H]2O)O[C@H](COC(C)=O)[C@@H](O)[C@@H]1O (stereo not given in full) | 3.1 | 3.61 | 5.62 | -10.3 | -3.54
18 | CC(C)c1ccc(N2C(=O)c3cc4sccc4n3CC2(C)C(=O)NC2CCCCC2)cc1 (stereo not given) | -1 | 6.34 | 0.011 | 3.54 | -1.73
19 | COc1ccc(Nc2nc3c(S(=O)(=O)c4ccc(C)cc4)nnn3c3ccccc23)cc1OC | -15.8 | 5.41 | 3.31 | 1.36 | -1.34
